# In PubChem BioAssay AID1259400 (National Center for Advancing Translational Sciences (NCATS), 2018):
# The campaign covered roughly 350,000 compounds. About 2,100 (0.6%) were called active. Inconclusive results, whose numbers are uncertain, are shown with a selection of clear calls.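 The calls were made as follows: active = activity change of -60% or lower, but not beyond a set lower limit; inconclusive = change between -60% and -40%, or beyond the set limit; inactive = change above -40%.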
# Biological target: Relaxin receptor 1 (Homo sapiens) (UniProt Q9HBX9)
# Assay: qHTS Assay for Antagonists of the Relaxin Receptor RXFP1
# Conditions: HEK293-RXFP1, relaxin-stimulated cAMP HTRF, 30 min; at 57.5 µM; stronger effect = lower value
# % is scaled to controls: 0 for no effect and ±100 for the full control effect.
# Sequence of UniProt Q9HBX9 (Q9HBX9 whole entry, looked up): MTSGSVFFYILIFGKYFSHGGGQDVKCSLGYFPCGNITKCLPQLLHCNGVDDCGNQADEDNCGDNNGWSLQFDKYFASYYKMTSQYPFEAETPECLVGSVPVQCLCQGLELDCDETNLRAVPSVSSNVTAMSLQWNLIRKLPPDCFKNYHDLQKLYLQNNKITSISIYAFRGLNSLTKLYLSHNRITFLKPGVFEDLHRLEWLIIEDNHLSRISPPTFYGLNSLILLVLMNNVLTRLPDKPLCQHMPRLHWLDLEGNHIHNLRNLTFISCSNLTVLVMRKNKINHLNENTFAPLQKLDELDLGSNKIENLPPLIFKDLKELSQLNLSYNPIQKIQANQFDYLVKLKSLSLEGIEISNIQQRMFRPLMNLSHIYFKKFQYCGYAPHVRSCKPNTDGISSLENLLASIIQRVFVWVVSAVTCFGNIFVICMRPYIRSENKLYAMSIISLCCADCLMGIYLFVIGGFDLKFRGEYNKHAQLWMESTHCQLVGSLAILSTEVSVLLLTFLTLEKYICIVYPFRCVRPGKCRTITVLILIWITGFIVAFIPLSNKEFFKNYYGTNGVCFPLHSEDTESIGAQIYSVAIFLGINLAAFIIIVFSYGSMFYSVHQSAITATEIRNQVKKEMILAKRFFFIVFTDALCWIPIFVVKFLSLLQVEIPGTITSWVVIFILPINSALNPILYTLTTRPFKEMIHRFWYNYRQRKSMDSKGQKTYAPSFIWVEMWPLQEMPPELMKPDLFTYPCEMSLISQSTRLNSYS
row,Structure (SMILES),"activity change, negative = inhibition"
1,O=C(N/N=C\C=C\c1ccc([N+](=O)[O-])o1)c1cccs1,inconclusive: -40.1%
2,CSC1=NSC2=NC(=O)/C(=C\c3ccc(OC(=O)c4ccco4)cc3)C(=N)N12,inconclusive: -45.2%
3,CCOc1ccc(NC(=O)c2c(NCc3ccc(C)o3)sc3c2CCC(C)C3)cc1 (centres undefined),inconclusive: -41.5%
4,O=C(CSc1nc2ccccc2[nH]1)c1c[nH]c2ccccc12,inconclusive: -46.8%
5,Cc1nn(C(=O)CCCC(=O)NCc2ccccc2)c2ccccc12,inactive: 1.96%
6,CCCC(C)C(=O)Nc1cccc(NC(C)=O)c1 (centres undefined),inactive: -19.1%
7,CNC(=O)c1nnsc1S(=O)(=O)c1ccc(Cl)cc1,active: -82.8%
8,COc1ccc(NC(=O)OCCn2c([N+](=O)[O-])cnc2C)cc1,inactive: 1.05%
9,CCCCOc1ccc2c(c1)C(=O)c1cc(O)ccc1-2,inactive: 0.897%
10,CC1OC(CC(=O)O)CC2=C1C(=O)c1c(O)cccc1C2=O (centres undefined),active: -62.8%
11,CCOc1ccc2nc(NCCNC(=O)C3CC3)c(C)cc2c1,inactive: 8.2%
12,COc1ccc(-n2c(=S)[nH]c3cc(C(=O)Nc4ccc(C)c(F)c4)ccc3c2=O)c(OC)c1,inconclusive: -56.7%
13,O=C(COc1ccc(F)cc1)Nc1ccc2nc(SCC(=O)N3CCOCC3)sc2c1,inconclusive: -44.5%
14,O=C(CSc1n[nH]c(-c2ccncc2)n1)Nc1ccccc1,inconclusive: -45.4%
15,Cc1onc(-c2ccccc2)c1-c1csc(N/N=C/c2ccccc2Cl)n1,inconclusive: -54.8%
16,Cc1cccc(NC(=S)Nc2ccccn2)c1,inconclusive: -41%
17,OC(CN1C2=NCCCN2c2ccccc21)c1ccc2c(c1)OCO2 (centres undefined),inactive: 13.4%
18,O=C(Nc1cccc(S(=O)(=O)Nc2ccc(SC(F)F)cc2)c1)C1CCC1,inconclusive: -48.2%
19,Cc1ccc(NC(=O)Cn2ncn3c(cc4ccccc43)c2=O)cc1F,inconclusive: -42%
20,Cc1cccc(NC(=O)C2c3ccccc3Oc3ccccc32)n1,inconclusive: -41%
21,CN(C)CCCNc1cc(C(C)(C)C)nc2c(-c3ccc(Cl)cc3)cnn12,inconclusive: -44%

row,Structure (SMILES),"activity change, negative = inhibition"
1,CCc1ccc(NC(=O)NCC2CCN(Cc3cccc(Cl)c3)CC2)cc1,inactive: 2.71%
2,Cc1nc(N2CCN(C)CC2)c2cc(-c3ccccc3)sc2n1,inactive: -8.09%
3,CC(C)CC(NC(N)=O)C(=O)Nc1cccc([N+](=O)[O-])c1 (centres undefined),inconclusive: -41.6%
4,CCC(=O)Nc1ccc(SC#N)cc1C,inconclusive: -48.1%
5,Cc1ccc(C)c(N2CCN(C(=O)C34CC5CC(C3)CC(n3nnc(C)n3)(C5)C4)CC2)c1,inconclusive: -41.1%
6,COc1ccc2c(C)c(CC(=O)N3CCN(C(=O)C4COc5ccccc5O4)CC3)c(=O)oc2c1C (centres undefined),inconclusive: -51.6%
7,O=c1c2ccccc2[nH]c(=S)n1CCCN1CCC(Cc2ccccc2)CC1,inconclusive: -58.9%
8,CCCCCCn1c(SCC(=O)c2c(N)n(C)c(=O)n(C)c2=O)nc2ccccc21,inactive: -14.8%
9,O=C(NCCCCNC(=O)c1ccc(F)cc1)c1ccc(F)cc1,inactive: 3.64%
10,O=C(N/N=C/c1cn(-c2cccs2)nc1-c1ccccc1)c1ccccc1O,active: -88.3%
11,O=C(Nc1ccc(-c2nc3cc(Cl)ccc3c(=O)o2)cc1)c1ccco1,active: -65.6%
12,CCOc1ccccc1NC(=O)N1CC(CC)Oc2ccccc21 (centres undefined),active: -80.5%
13,O=C(Nc1ccsc1C(=O)O)c1cccc(C(F)(F)F)c1,inactive: 1.48%
14,CCOc1ccc(NC(=O)c2ccc3[nH]c(C)c(C)c3c2)cc1,inconclusive: -42.7%
15,Cc1nc2n(c(=O)c1CCN1CCC(C(=O)c3ccc(F)cc3)CC1)CCS2,inactive: 44%
16,CCc1ccc(C(CNc2nc(C(F)(F)F)nc3ccccc23)N(C)C)cc1 (centres undefined),inconclusive: -58.9%
17,CC1(C)CC(NC(=O)c2cc(S(=O)(=O)N3CCOCC3)c(Cl)cc2Cl)CC(C)(C)N1,inconclusive: -50.3%
18,Cc1cc(C)c(NC(=O)CN(C)S(=O)(=O)c2ccc3c(c2)CCC(=O)N3)c(C)c1,inactive: -3.56%
19,O=C(Nc1ccc2c(c1)oc1ccccc12)c1ccc(Br)o1,inconclusive: -41%
20,Cc1ccc2nc(NC(=O)C3CCN(C(=O)c4ccc(F)cc4)CC3)sc2c1,inconclusive: -54.8%
21,NS(=O)(=O)c1ccc(CCNC(=O)c2cc([N+](=O)[O-])ccc2N2CCCCC2)cc1,inconclusive: -43.3%

row,Structure (SMILES),"activity change, negative = inhibition"
1,COc1ccc(N2CCN(C(=O)c3ccc(Cn4c(=S)[nH]c5ccc(N6CCOCC6)cc5c4=O)cc3)CC2)cc1,inconclusive: -56.5%
2,CCN(CC)c1ccc(C(=C2C=CC(=[N+](CC)CC)C=C2)c2ccc(S(=O)(=O)O)cc2S(=O)(=O)[O-])cc1,active: -90%
3,CC(=O)Nc1ccccc1-c1nnn(CC(=O)Nc2ccc3c(c2)OCCO3)n1,inactive: -9.55%
4,CCN1C(=O)/C(=C\C(=O)c2cccs2)c2cc(Br)ccc21,active: -66.2%
5,CCC(C)NC(=O)c1ccc(-n2c(=S)[nH]c3ccccc3c2=O)cc1 (centres undefined),active: -105%
6,COC(=O)c1ccccc1NC(=O)c1cc2sccc2n1C,inconclusive: -48.5%
7,Cc1ccc(CNC(=S)N(C)C)cc1,inactive: -9.29%
8,Cc1cc(C)c2oc(-c3cccc(NC(=O)COc4ccc([N+](=O)[O-])cc4)c3)nc2c1,inactive: -2.53%
9,CN(C)CCCNC(=S)Nc1ccc(-c2ccccc2)cc1,inconclusive: -49.7%
10,N#C/C(=C\c1ccc(OCc2ccc(Br)cc2)cc1)C(=O)Nc1cccc(C(=O)O)c1,inconclusive: -52.1%
11,Cc1cccc2c1NC(=O)C2(c1ccc(O)cc1)c1ccc(O)cc1,inactive: -16.7%
12,CCN1C(=O)c2ccccc2Sc2ccc(C(=O)NCCCN(CC(C)C)CC(C)C)cc21,inconclusive: -40.2%
13,O=C(O)c1ccc(COc2ccc([N+](=O)[O-])cc2Cl)cc1,inactive: -5.77%
14,COc1ccc(CCCc2nnc(SCc3nc4ccccc4c(=O)[nH]3)n2C)c(C)c1,inactive: 1.11%
15,C=C1CC2(CC(c3ccccc3)OC(c3ccccc3)C2)OC1=O (centres undefined),inconclusive: -46.7%
16,Cc1cc(C)c(S(=O)(=O)Nc2ccc3c(c2)CCC3)c(C)c1,inconclusive: -54.5%
17,COc1cc(C2Oc3ccccc3C=C2[N+](=O)[O-])cc(OC)c1OC (centres undefined),inconclusive: -55.3%
18,Cc1nc2c(C(=O)NCc3ccccc3)c[nH]n2c(=O)c1Cc1ccccc1Cl,active: -60.4%
19,COc1cc(CN2CCN(c3cccc(C)c3C)CC2)cc(Br)c1O,inconclusive: -40.6%
20,Cc1nc2cccnc2n1-c1cccc(C(=O)N2CCN(c3ccc(Cl)cc3)CC2)c1,inconclusive: -46.3%
21,CC(=O)OC1CCC2(C)C(CCC3C4CC=C(C(C)=O)C4(C)OC(=O)CC32)C1 (centres undefined),inconclusive: -56.2%

row,Structure (SMILES),"activity change, negative = inhibition"
1,Cc1coc2ccccc2c1=O,inactive: -2.12%
2,CC[n+]1c(/C=C/c2ccc(N(C)C)cc2)ccc2ccccc21,active: -91.3%
3,CN(C(=O)COC(=O)c1cc(S(=O)(=O)N2CCOCC2)c(Cl)cc1Cl)C1CCS(=O)(=O)C1 (centres undefined),inconclusive: -42.6%
4,Cc1ccc(N=C(NOC(=O)c2ccccc2)c2nonc2N)c(C)c1,inconclusive: -50.6%
5,COc1ccc(O)c(C(=O)c2cnn(-c3ccccc3)c2)c1,inactive: -18%
6,O=C(Nc1nc2cc3c(cc2s1)OCCO3)c1ccco1,inconclusive: -55.9%
7,COc1ccc(C(c2c(C)[nH]n(-c3ccccc3)c2=O)c2c(C)[nH]n(-c3ccccc3)c2=O)cc1OC,inconclusive: -46.4%
8,COc1cc(OC)c(NC(=O)Cn2c(=O)oc3cc(S(=O)(=O)N4CCCC4)ccc32)cc1Cl,inconclusive: -43.7%
9,C[C@H]1O[C@@H](O[C@H]2CC[C@@]3(C)[C@H](CC[C@@H]4[C@@H]3C[C@@H](O)[C@]3(C)[C@@H](C5=CC(=O)OC5)CC[C@]43O)C2)C[C@H](O)[C@@H]1O[C@H]1C[C@H](O)[C@H](O[C@H]2C[C@H](O)[C@H](O[C@@H]3O[C@H](CO)[C@@H](O)[C@H](O)[C@H]3O)[C@@H](C)O2)[C@@H](C)O1,inactive: -32.6%
10,COc1ccccc1N1CCN(CCCNC(=O)c2cnn(-c3ccccc3)c2C2CCN(C(=O)OC(C)(C)C)CC2)CC1,inconclusive: -40%
11,Cc1ccc(NC(=O)CSc2nnc3scc(-c4ccccc4)n23)cc1,inactive: -1.58%
12,COc1ccc(C2N(C(=O)N(C)C)CCN2S(=O)(=O)c2ccc(OC)cc2)cc1 (centres undefined),inactive: 5.49%
13,C=C(C)CNC(=S)NNC(=O)CCn1c2ccc(Cl)cc2c2cc(Cl)ccc21,inconclusive: -43.7%
14,CNC(=O)c1c(NC(=O)c2ccco2)sc(C)c1C,active: -88.4%
15,CC(C)C(Nc1ccc(C(F)(F)F)cc1[N+](=O)[O-])C(=O)O (centres undefined),inconclusive: -41.3%
16,COCCn1c(=S)[nH]c2cc(C(=O)N3CCN(c4ccccc4OC)CC3)ccc2c1=O,active: -112%
17,N=C1/C(=C\c2coc3ccc(O)cc3c2=O)C(=O)N=C2SC=CN12,inactive: -19.9%
18,CN(C(=O)c1ccc(N2CCCCC2)c([N+](=O)[O-])c1)C1(C)CCS(=O)(=O)C1 (centres undefined),inactive: -18.9%
19,O=c1c2ccc(F)cc2sn1-c1ccccc1,inconclusive: -40.2%
20,O=C(c1cc(COc2c(F)cccc2F)on1)N1CCC(c2ccccc2Cl)C1 (centres undefined),inactive: -10%
21,COc1ccc(Oc2ccc(/C=C/C(=O)c3ccc(O)cc3)cc2[N+](=O)[O-])cc1,active: -64.1%
